# In PubChem BioAssay AID1745849 (National Center for Advancing Translational Sciences (NCATS), 2022):
# Hit rate of the full screen: of about 2,100 compounds, about 320 (15%) were called active. Inconclusive results, whose numbers are uncertain, are shown with a selection of clear calls. Calls follow the shape of the dose curve; as a rule, active = well fitted cell-killing curve with a large enough effect; inconclusive = small, poorly fitted or top-dose-only effect, or effect the other way; inactive = flat fitted curve, though single readings scatter. Potencies of inconclusive entries are doubtful fits and often do not repeat.
# Test: Viability Counterscreen for CMV-Luciferase Assay of Inhibitors of ATXN expression; also: nearly all actives have a fitted effect of over 55% in size
# Details: HEK-293 CMV-luciferase cells viability, protease fluorescence, 24 h; activity change, negative = cytotoxicity: at the top concentration
# Procedure, shortened: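 Cells: HEK-293/CMV-luc in phenol-red-free DMEM, 2 hr settle. Cpd dose, 24 hr, 37 °C, 5% CO2. Viability: Gly-Phe-AFC 25 uM final, 30 min, fluor. Then SteadyGlo, 5 min RT, lumin.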
# % is scaled to controls: 0 for no effect and ±100 for the full control effect; potency is read from the fitted curve at half-maximal effect; tags tell the direction and shape of the fitted curve.
Compound,"activity change, negative = cytotoxicity",Potency
CCOC(=O)c1ccc(NC(=O)c2nc[nH]c2C(=O)N[C@H](C)c2ccccc2)cc1,inactive: 10.5%,
O=C(c1ccco1)N1CCN(c2ccnc3cc(Cl)ccc23)CC1,,"inconclusive: 28.2 µM [cytotoxic, partial curve, poor fit]"
CCCCOc1ccccc1NC(=O)Cn1c(-c2nonc2N)nc2ccccc21,,"inconclusive: 3.16 µM [cytotoxic, partial curve, poor fit]"
O=[N+]([O-])c1ccc(C[n+]2cccc3ccc4cccnc4c32)cc1,,"inconclusive: 3.55 µM [cytotoxic, single point]"
CC(=O)Oc1ccc(N(C(C)=O)S(=O)(=O)c2ccc(C)cc2)c2ccccc12,,"inconclusive: 7.08 µM [cytotoxic, single point]"
Cc1csc2c(N3CCN(C(=O)Nc4ccc(Cl)c(Cl)c4)CC3)ncnc12,inactive: -11.9%,
CN(Cc1ccccc1)C1=CC(=[N+]2CCCC2)CC(C)(C)C1,inactive: -15.5%,
Cc1cccc(CN2C(=O)/C(=C\c3ccc(C(=O)NCCN4CCOCC4)cc3)Sc3ccccc32)c1,inactive: -13.8% [at 57.5 µM],
COc1cccc(CNc2nc(NCc3ccccc3)nc3ccsc23)c1,,"inconclusive: 39.8 µM [cytotoxic, single point]"
Cc1ccc(NC(=O)C2CCN(S(=O)(=O)c3ccc(N4CCCC4=O)cc3)CC2)cc1Cl,inactive: -0.54%,
N#C/C(=N\Nc1cccc([N+](=O)[O-])c1)C(=O)c1ccc(Br)cc1,,active: 2.24 µM
[O-][n+]1c2ccccc2cc2ccccc21,,"inconclusive: 35.5 µM [rising, single point]"
CC(=O)c1c(C)oc2ccc(N(C(C)=O)S(=O)(=O)c3cccc4cccnc34)cc12,,"inconclusive: 10 µM [cytotoxic, partial curve, poor fit]"
CC1(C)Cc2c(sc(NC(=O)c3ccc(C(=O)c4ccccc4)cc3)c2C(N)=O)C(C)(C)N1,,"inconclusive: 39.8 µM [cytotoxic, single point]"
Cc1ccc2cc(C#N)c(N3CCN(C(=O)c4ccccc4)CC3)nc2c1,inactive: -14.6% [at 57.5 µM],
CCN1C(=O)C(CC(=O)Nc2ccc(OC)cc2)N(CCc2ccc(F)cc2)C1=S (stereo not drawn),inactive: -29.9%,
S=C(NCc1cccnc1)Nc1ccc(Oc2ccc(Cl)cc2)cc1,,"inconclusive: 11.2 µM [cytotoxic, partial curve, poor fit]"
N#Cc1ccccc1NC(=O)C1SC(=Nc2ccccc2)C(C(=O)Nc2ccc(Cl)cc2)=C1N (stereo not drawn),inactive: -3.29%,
Cc1c(N=C2N=C(NC(=O)c3ccc(F)cc3)c3ccccc32)c(=O)n(-c2ccccc2)n1C,,"inconclusive: 2.82 µM [cytotoxic, partial curve]"
CC(=O)c1sc(NC(=O)c2cc(-c3ccccc3)nn2-c2ccccc2)nc1C,inactive: 11.5%,
Cc1cc(C)cc(NC(=O)/C(C#N)=C/c2cn(CC(=O)NCc3ccco3)c3ccccc23)c1,,"inconclusive: 3.98 µM [rising, partial curve, poor fit]"
Cc1cc(C2=NNC(=NC3CC3)SC2)c(C)n1-c1ccccc1F,inactive: -27.9%,
CC(C)C(=O)NC(c1ccccc1)c1cc([N+](=O)[O-])c2cccnc2c1O (stereo not drawn),,active: 20 µM

Compound,"activity change, negative = cytotoxicity",Potency
CCCCSc1nc(C)cc(SCC(=O)N/N=C/c2cccc(OC)c2O)n1,,"inconclusive: 0.708 µM [cytotoxic, partial curve]"
O=[N+]([O-])c1cc(CN2CCN(c3ccccc3)CC2)c(O)c2ncccc12,,active: 11.2 µM
CCOC(=O)c1cnc2ccc(OC)cc2c1Nc1ccc(N2CCN(C)CC2)cc1,inactive: -29.6% [at 57.5 µM],
COc1ccccc1N1CCN(C(=O)c2cc3c(C)nc4ccccc4c3o2)CC1,,"inconclusive: 3.98 µM [cytotoxic, single point]"
Cc1sc2nc(CN3CCCC3)nc(N3CCC(C(N)=O)CC3)c2c1C,inactive: -6.87% [at 57.5 µM],
Cn1cc(C(=O)c2ccc(Cl)cc2Cl)cc1C(=O)N/N=C(\N)COc1ccc(Cl)cc1,,"inconclusive: 10 µM [cytotoxic, partial curve, poor fit]"
Cc1noc2ncnc(N3CCN(c4cccc(Cl)c4)CC3)c12,inactive: 7.33% [at 57.5 µM],
COc1cccc(/C=N/Nc2ncc(C(F)(F)F)cc2Cl)c1O,,"inconclusive: 2 µM [cytotoxic, full curve]"
Cc1cc(/C=N/n2c(COc3ccccc3)nc3ccccc3c2=O)c(O)c([N+](=O)[O-])c1,,active: 12.6 µM
CC(C)[C@@H]1CC[C@@H](C)C[C@H]1OC(=O)C[n+]1cc(-c2ccc(Cl)cc2)n2c1CCCCC2,,"inconclusive: 22.4 µM [cytotoxic, partial curve, poor fit]"
O=C(NC1CCN(Cc2ccccc2)CC1)c1cccc(S(=O)(=O)Nc2ccc(SC(F)F)cc2)c1,inactive: -17.8% [at 57.5 µM],
Cn1c(N)c(C(=O)Nc2ccc(-c3ccccc3)cc2)sc1=S,inactive: -0.775% [at 57.5 µM],
Cn1cc(/C=C/c2cc[n+](C)cc2)c2cc(F)ccc21,,"inconclusive: 31.6 µM [rising, partial curve]"
CCCCCCc1cc2cc(C(=O)Nc3ccccc3)c(=O)oc2cc1O,,"inconclusive: 0.199 µM [rising, full curve]"
COCCCn1c(-c2ccc(S(=O)(=O)N3CCOCC3)cc2)csc1=Nc1ccccc1,inactive: 2.74%,
NNC(=O)c1nc(-c2ccccc2)cc(-c2ccccc2)n1,,"inconclusive: 31.6 µM [cytotoxic, single point]"
COc1ccc(CCNc2ncnc3c2[nH]c2cc(OC)c(OC)cc23)cc1OC,,"inconclusive: 28.2 µM [cytotoxic, single point]"
COc1ccc2c(c1)[nH]c1c(=O)n(/N=C/C3C(C)C=C(C)CC3C)c(=O)[nH]c12 (stereo not drawn),,active: 20 µM
CC(=O)c1cccc(NC(=O)c2cccc3c(-c4cccc(C(N)=O)c4)coc23)c1,,active: 11.2 µM
CCOc1ccc(Nc2c3ccccc3nc3ccccc23)cc1,,"inconclusive: 20 µM [cytotoxic, partial curve, poor fit]"
CCCCC(=O)NC(c1ccc(Cl)cc1Cl)c1ccc2cccnc2c1O (stereo not drawn),,"inconclusive: 1 µM [cytotoxic, partial curve, poor fit]"
COc1ccc(CCNC(=O)c2cc(-c3cc(C)cc(C)c3O)n[nH]2)cc1OC,,"inconclusive: 7.94 µM [cytotoxic, full curve]"
Cc1ccc(C(=O)N(C)CC(=O)Nc2ccc(Cl)c(C(F)(F)F)c2)cc1S(=O)(=O)N1CCCCC1,,active: 20 µM

Compound,"activity change, negative = cytotoxicity",Potency
O=C(CSc1n[nH]c(-c2ccccn2)n1)Nc1cccc(Cl)c1,,active: 10 µM
CCOC(=O)N(C)c1c(CC)nc2c(OCc3ccccc3C)cccn12,,"inconclusive: 22.4 µM [cytotoxic, single point]"
O=C(Nc1ccc(NC(=O)c2cccs2)cc1)c1ccc2c(c1)OCO2,inactive: -1.89%,
CC1=NN(c2nc3ccccc3[nH]2)C(=O)C1Cc1ccccc1 (stereo not drawn),,"inconclusive: 2.82 µM [cytotoxic, full curve, poor fit]"
Cc1ccc(/C=C2/SC(=S)N(CCCC(=O)Nc3cc([N+](=O)[O-])ccc3O)C2=O)cc1,,active: 25.1 µM
NC(COCc1ccccc1)c1csc(Nc2ccc(C(F)(F)F)cn2)n1 (stereo not drawn),,"inconclusive: 39.8 µM [cytotoxic, single point]"
COCCCNC1=C(Cl)C(=O)c2ccccc2C1=O,,active: 25.1 µM
Fc1ccc2[nH]c3c(NCc4ccccc4)ncnc3c2c1,,"inconclusive: 7.08 µM [cytotoxic, single point]"
O=C1c2cccc3c([N+](=O)[O-])ccc(c23)C(=O)N1c1ccccn1,,"inconclusive: 4.47 µM [rising, partial curve]"
Cc1c(C(=O)NCc2ccc(F)cc2)sc(=O)n1Cc1ccc(Cl)c(Cl)c1,,"inconclusive: 20 µM [cytotoxic, partial curve, poor fit]"
CCOc1cc([C@@H]2C[C@H]3CN(c4ccccc4)C(=O)[C@]34CCCN24)ccc1OC,,"inconclusive: 20 µM [cytotoxic, partial curve]"
CCNc1ccc(Br)cc(C(=O)/C=C/c2ccc(Cl)cc2Cl)c1=O,,"inconclusive: 2.82 µM [cytotoxic, partial curve, poor fit]"
CC1=C(CC[C@@H](C)CO)OC2CC3C4CCC5CC(O)CCC5(C)C4CC(=O)C3(C)C12 (stereo partly drawn),inactive: -24.2%,
COc1cc([N+](=O)[O-])cc(/C=N/NC(=O)c2ccc(NC(=O)c3ccc(C)cc3)cc2)c1O,,active: 1.41 µM
Clc1ccc(CSc2ccc(-c3ccccn3)nn2)cc1,,"inconclusive: 1.26 µM [cytotoxic, full curve, poor fit]"
COc1ccc(-c2nc(CN3CCN(c4ncnc5ccccc45)CC3)c(C)o2)c(OC)c1,inactive: -25.7%,
CN(C)CCNc1ccc2nnn3c4ccc(O)cc4c(=O)c1c23,,"inconclusive: 2.82 µM [cytotoxic, partial curve, poor fit]"
Cc1nc(-c2ccc(Cl)cc2)sc1C(=O)NN,,"inconclusive: 17.8 µM [rising, single point]"
Cc1cc(C)cc(NC(=O)c2ccc([N+](=O)[O-])o2)c1,,"inconclusive: 3.16 µM [cytotoxic, single point]"
CCCCN(C=O)c1c(CC)nc2ccc(C(=O)Nc3cc(-c4ccccc4)ccc3OC)cn12,,"inconclusive: 28.2 µM [cytotoxic, single point]"
CCN1CCN(c2ccc(S(=O)(=O)N3CCCCC3)cc2NC(=O)c2ccc([N+](=O)[O-])s2)CC1,,"inconclusive: 3.16 µM [cytotoxic, partial curve]"
CCN1CCN(c2ccc(S(=O)(=O)N3CCCCC3)cc2NC(=O)/C=C/c2ccc([N+](=O)[O-])cc2)CC1,,"inconclusive: 2.51 µM [cytotoxic, partial curve]"
